Data: PubChem BioAssay AID488969 (Vanderbilt High Throughput Screening Facility, 2010)
The full ranking holds about 110,000 compounds; the median of “z-score” is about -0.1, and the highest 2% start at about 2. The list shows a part of the results. Activity calls are given as the source filed them.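 Rule for the calls: active = z-score in the third read window above 3 or below -3; inactive = the rest.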

biological target: Metabotropic glutamate receptor 8 (Rattus norvegicus) (UniProt P70579); assay: rat mGluR8 modulators via GIRK flux, primary screen, cell-based, thallium flux, HTS (AID 488969); conditions: HEK293 rat mGluR8, GIRK (G protein-gated inwardly rectifying potassium channel) thallium flux, FluoZin2; at 10 µM; stronger effect = higher value; submaximal glutamate (EC20) added with thallium
Sequence of UniProt P70579 (P70579 whole entry, looked up): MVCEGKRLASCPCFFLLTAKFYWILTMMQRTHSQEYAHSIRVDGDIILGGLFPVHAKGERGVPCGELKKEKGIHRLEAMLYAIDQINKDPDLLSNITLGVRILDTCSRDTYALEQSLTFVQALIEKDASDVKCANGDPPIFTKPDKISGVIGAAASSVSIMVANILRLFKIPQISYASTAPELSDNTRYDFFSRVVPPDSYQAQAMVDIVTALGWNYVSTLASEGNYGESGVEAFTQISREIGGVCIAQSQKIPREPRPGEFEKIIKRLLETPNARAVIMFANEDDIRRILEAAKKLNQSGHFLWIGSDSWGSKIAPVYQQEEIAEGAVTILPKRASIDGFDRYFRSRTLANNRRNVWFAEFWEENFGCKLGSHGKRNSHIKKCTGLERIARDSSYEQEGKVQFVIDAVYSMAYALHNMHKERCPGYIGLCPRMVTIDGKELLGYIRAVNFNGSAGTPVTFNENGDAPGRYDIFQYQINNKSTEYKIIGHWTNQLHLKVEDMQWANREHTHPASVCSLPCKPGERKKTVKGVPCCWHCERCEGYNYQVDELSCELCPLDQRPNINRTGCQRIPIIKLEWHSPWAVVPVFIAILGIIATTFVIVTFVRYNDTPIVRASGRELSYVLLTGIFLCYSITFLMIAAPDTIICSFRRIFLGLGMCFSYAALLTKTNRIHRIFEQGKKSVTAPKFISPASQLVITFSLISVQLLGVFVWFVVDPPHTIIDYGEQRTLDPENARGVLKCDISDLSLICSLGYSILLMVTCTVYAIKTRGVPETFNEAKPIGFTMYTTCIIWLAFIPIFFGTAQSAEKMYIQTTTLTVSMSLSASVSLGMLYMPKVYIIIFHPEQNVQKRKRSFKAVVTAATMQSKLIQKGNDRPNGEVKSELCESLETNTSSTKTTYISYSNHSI

Point of comparison: O=C(/C=C/c1ccco1)NC(=S)Nc1ccc(N2CCOCC2)c(Cl)c1, z-score 0.0338. Against it:
- CCC(=O)Nc1ccc(F)c(Cl)c1 — lower, -0.242
- N#Cc1c(N2C(=O)C3C4C=CC(C4)C3C2=O)sc2c1CCC2 (centres undefined) — lower, 0.0284
- CCOc1c(OC(C)=O)ccc(/C=C2\N=C(SCC)SC2=O)c1[N+](=O)[O-] — lower, -0.451
- CCN(CC)S(=O)(=O)c1ccc(N2CCCC2)c(C(=O)OCC(=O)/C(C#N)=C(\C)N)c1 — lower, -2.04
- CNc1ccc(C2(O)C(=O)c3ccccc3C2=O)cc1 — lower, -0.306
- Cc1cccc(-c2csc(N)c2C(=O)OC(C)C)c1 — lower, -0.214
- C=C(C)C(=O)Nc1cccc(C(C)=O)c1 — lower, -0.149
- CNc1nc(C(=O)O)nc(N2CCOCC2)n1 — higher, 0.0822
- CCCCCNC(=O)C(C)NS(=O)(=O)c1ccc(OC)cc1 (centres undefined) — higher, 0.171
- O=C(OCCN1C(=O)c2ccccc2C1=O)c1ccco1 — higher, 0.386
- COc1ccccc1CNC(=O)CN1CCC(n2cnc3cc(F)ccc32)CC1 — lower, -0.204
- COc1cccc(/C(O)=C/c2nc3ccc(C(=O)NCCc4cccc(C)c4)cc3[nH]c2=O)c1 — lower, -0.284
- O=C(NCc1ccccn1)c1cc(-c2ccc(-c3ccccc3)cc2)nc2ccccc12 — lower, -0.368
- O=C(Nc1ccc2c(c1)OCCO2)c1cncc(Br)c1 — lower, -0.0828
- COc1ccc(NC(=O)CC2C(=O)N(CCc3ccccc3)C(=S)N2Cc2cccnc2)cc1 (centres undefined) — lower, -0.24
- CC(C)C(NC(=O)c1ccccc1)c1nnc(SCC(=O)Nc2nccs2)n1C (centres undefined) — lower, -0.525
- CCc1cc(=O)oc2cc(C)c3c(C)coc3c12 — lower, -0.393
- COc1cccc(OCCCN2CCN(S(=O)(=O)c3ccc(NC(C)=O)cc3)CC2)c1 — lower, -0.199
- Cc1cccc(-c2nnc(SCC3CNC(=O)O3)n2-c2ccc(Cl)cc2)c1 (centres undefined) — lower, -0.276
- COc1ccc(NS(=O)(=O)c2cccc(Cl)c2)cc1S(=O)(=O)N1CCCCC1 — higher, 0.842
- COc1ccc2c(C)cc(SCC(=O)Nc3c(C)n(C)n(-c4ccccc4)c3=O)nc2c1 — lower, -0.212
- CCCC(=O)NC(=S)Nc1cccc(NC(=O)c2ccccc2Cl)c1 — lower, -0.103
- CCOC(=O)c1sc(NC(=O)CN(CC)CC)c(C(=O)OCC)c1C — lower, -0.132
- CCOc1ccccc1NC(=O)CC(O)(C(F)(F)F)C(F)(F)F — higher, 0.305
- COc1ccc(-c2c(C#N)c(SCC(=O)Nc3ccccc3)nc3c2CCCC3)cc1 — lower, -0.0816
- Cc1ccc(-n2c(N)c(C(=O)N3CCOCC3)sc2=S)cc1 — higher, 0.347
- O=c1cc(N2CCCCC2)c(-c2ccccc2)nn1Cc1ccc(Cl)cc1 — lower, 0.0175
- Cc1ccnn1CC(=O)N/N=C/c1ccc2c(c1)OCO2 — lower, -0.38
- Cn1c(=O)c2c(-c3cccc(F)c3)c3c(nc2n(C)c1=O)-c1ccccc1C3O (centres undefined) — lower, -1.52
- CCC(CC)NC(=O)CO/N=C/c1ccccc1OC(F)F — lower, -0.0639
- CCOC(=O)N1CCN(C(=O)Nc2ccc(Cl)cc2)CC1 — lower, -0.0107
- CCOc1ccc(Cn2nnc(C(=O)NCCc3ccc(Cl)cc3)c2N)cc1 — lower, -0.226
- COc1cc2c(cc1OC)C(c1cc3cc4c(cc3[nH]c1=O)OCO4)N(C(=O)C(C)C)CC2 (centres undefined) — lower, -0.0568
- Cc1c(C(=O)O)nn(-c2ccccc2)c(=O)c1C#N — higher, 0.0941
- CC(=O)N1N=C(c2ccccc2)CC1c1cn(C)c2ccccc12 (centres undefined) — lower, -1.54
- Cc1ccc(S(=O)(=O)N=S(CC2CC2(Cl)Cl)CC2CC2(Cl)Cl)cc1 (centres undefined) — lower, -0.364
- O=C(N/N=C/c1cccc(OC(=O)N2CCOCC2)c1)c1cccs1 — lower, -0.0322
- c1ccc2c(c1)OCC(CNc1ncnc3sccc13)O2 (centres undefined) — lower, -0.346
- COc1ccc2nc(NC(=O)Cc3cccs3)sc2c1 — lower, -0.144
- Cc1cc(C(C)(C)C)oc1C(=O)N(CC(=O)NC1CCCC1)Cc1ccccc1Cl — lower, -0.671
- CC(C)C(NC(=O)C1CCCCC1)C(=O)NC1CCN(Cc2ccccc2)CC1 (centres undefined) — higher, 0.129
- O=C(COc1ccc(Br)cc1CO)Nc1ccccc1F — lower, -0.0395
- Cc1ccc(NC(=O)C2C3CCCC2C3c2ccccc2)cc1C (centres undefined) — lower, -0.232
- COc1ccc(Oc2nnc(C)c3ccccc23)cc1 — lower, -0.35
- CC1CCCN(C(=O)c2ccc(CNc3c(N4CCCCC4)c(=O)c3=O)cc2)C1 (centres undefined) — lower, -0.544
- S=c1[nH]nc(-c2ccc3ccccc3n2)n1-c1cc(Cl)cc(Cl)c1 — higher, 2.18
- O=C1/C(=C\c2cccnc2)Sc2ccccc21 — lower, -0.757
- COc1ccc(NC(=O)CN(c2ccc(C)cc2)S(=O)(=O)c2c(C)nn(C)c2C)cc1OC — lower, -0.248
- FC(F)(F)c1n[nH]c(=S)n1/N=C/c1ccco1 — lower, -0.0482
- CC1(C)C(c2ccc(Cl)cc2)=[N+]([O-])C2(CCCC/C2=N\O)N1O (centres undefined) — higher, 0.275
- CCOC(=O)C1=C(Cc2ccc(C)cc2)C(=O)c2ccccc2C1=O — higher, 0.585
- CN(C)CCCNC(NC(=O)c1cccs1)C(Cl)(Cl)Cl (centres undefined) — lower, -0.135

CC(/C=N/n1c(-c2ccc(Cl)cc2)n[nH]c1=S)=C\c1ccco1 was tested, and the z-score was active: 6.09.
